The supplement of paper PMC12217912
The list shows a part of the results. Sequences were assembled here from the parent chain. Values near 0.05 are background.

B1: TEV protease; numbered along this chain (parent)
chain: MGESLFKGPRDYNPISSSICHLTNESDGHTTSLYGIGFGPFIITNKHLFRRNNGTLVVQSLHGVFKVKDTTTLQQHLVDGRDMIIIRMPKDFPPFPQKLKFREPQREERICLVTTNFQTKSMSSMVSDTSCTFPSGDGIFWKHWIQTKDGQCGSPLVSTRDGFIVGIHSASNFTNTNNYFTSVPKNFMELLTNQEAQQWVSGWRLNADSVLWGGHKVFMVKPEEPFQPVKEATQL

Variants of: B1
Experiment: raw area under fraction-flipped curve 0-4 h after induction (AUC4h, not background-subtracted), DNA-recorder readout of cleavage of the substrate (dimensionless); higher = more cleavage of the substrate by the protease variant
Settings: temperature: 34 °C; time window: 0-4 h after rhamnose induction
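Note: Bxb1 expression induced with 0.2% (w/v) L-rhamnose at OD600 near 0.5, cultures sampled hourly, flipped fraction per protease–substrate barcode pair counted by paired-end Illumina sequencing.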

Variant	area with substrate ENAYFQS	area with substrate ENCYFQS	area with substrate ENDYFQS	area with substrate ENGYFQS	area with substrate ENHYFQS	area with substrate ENKYFQS	area with substrate ENMYFQS	area with substrate ENNYFQS	area with substrate ENQYFQS	area with substrate ENRYFQS	area with substrate ENSYFQS	area with substrate ENTYFQS	area with substrate ENVYFQS	area with substrate ENWYFQS	area with substrate ENYYFQS	area with substrate ENEYFQS	area with substrate ENFYFQS	area with substrate ENIYFQS	area with substrate ENPYFQS
G150L	0.0606	0.0575	0.053	0.0627	0.0625	0.0591	0.0556	0.0593	0.0666	0.0392	0.0557	0.0535	0.0628	0.0728	0.0523				
Q151S	0.0652	0.071	0.0331	0.0697	0.037	0.0673		0.0534		0.0517	0.0552	0.0565			0.0512	0.0613	0.0365	0.114	
G153N	0.0876	0.0491	0.0608	0.048		0.0469			0.0568	0.0536	0.0437						0.0456		0.0404
G153Y	0.036		0.0566	0.0368			0.052		0.0521	0.0528		0.0462	0.0431			0.0433		0.0435	
P155E	0.0436		0.0655	0.0481	0.0582				0.0485		0.0441	0.0492		0.0457	0.0477	0.0343		0.0633	0.0485
P155M	0.0683				0.0575		0.0684		0.0671		0.0599	0.057	0.05	0.0416	0.0441	0.041	0.0467	0.0738	0.0267
L156K	0.0406	0.0526	0.0659	0.0581	0.0537			0.024	0.0803	0.0625	0.0412	0.0563	0.0526		0.0614	0.0534		0.0262	
V157N	0.0567		0.0611	0.0552	0.0525			0.0508	0.0516	0.0449	0.054	0.0415	0.0486	0.0501	0.044	0.0478	0.0554		
V157R	0.0554	0.0589	0.0616	0.0459	0.0545	0.0351			0.0628		0.0579	0.0734	0.0583	0	0.0605	0.0545	0.0569	0.0656	
T159E	0.0571	0.0658		0.0616		0.063	0.0775	0.0553	0.0594		0.0232		0.0752			0.0621	0.0601		
T159G	0.067		0.0606		0.0609				0.0551	0.0542	0.0595	0.0575	0.0802						0.0531
T159Y	0.0039	0.0498	0.0573					0.0478	0.059	0.063	0.0694				0.0515	0.077	0.0741	0.103	0.0651
R160A	0.0563	0.0691	0.0621		0.0617	0.0789	0.0754	0.0538	0.058	0.0692	0.0612	0.0716	0.0698		0.063	0.0667	0.075	0.117	0.0438
G162H	0.0625	0.059	0.0564	0.0776	0.047	0.0724		0.0626	0.0598	0.078	0.0673	0.0635	0.0855	0.0408		0.0635	0.0708		0.0557
I164E	0.0509	0.048	0.0508	0.0458	0.0569	0.0532	0.0699		0.0487		0.0516		0.0564			0.0623	0.0603	0.123	0.0549
I164H	0.0899	0.0546	0.075				0.0438		0.0499	0.0521	0.0619	0.0517	0.0428		0.0646	0.0489	0.0537		0.0483
I164L	0.0677	0.0751	0.0577	0.0594	0.0624	0.0639	0.0681	0.0366	0.0587	0.0586	0.0574	0.0583	0.0663	0.005	0.0571	0.0569	0.0636	0.0838	0.0468
V165D	0.0573	0.0638	0.0523	0.0595		0.0745	0.053	0.0658	0.0563	0.0379	0.0576	0.0816				0.0528	0.0527	0.0355	
G166Q	0.0403			0.0485	0.056	0.0385		0.0497	0.0517	0.0592	0.0537		0.0314		0.044	0.0605	0.0517	0.0659	
G166S	0.0518		0.0492	0.0496	0.0491			0.0528	0.059	0.058	0.0543	0.0599	0.0666			0.0462	0.0542	0.0567	
G166T	0.0477	0.0492	0.0569		0.025			0.0551	0.0471		0.0464	0.0305	0.043		0.0477	0.0285			
I167F	0.0492	0.0625	0.0596	0.0564		0.0671		0.0555	0.0664	0.074	0.0711		0.0561	0.0656	0.0428	0.0581	0.059	0.0689	
S169A	0.0638	0.0658	0.0656	0.0384	0.0435	0.0576	0.0599	0.0516	0.0526	0.0453	0.0647		0.087				0.0551		
S169C	0.0597	0.0587	0.0638		0.0645	0.0797	0.055		0.0658	0.0834	0.0613	0.0598			0.0691	0.0673	0.0648	0.121	
S171G	0.0529		0.0711		0.0638	0.0522			0.0714		0.0588	0.0459	0.0699						
N177V	0.0874	0.0684	0.0452		0.0729	0.0595	0.0915	0.0551	0.111	0.0577	0.0675	0.0871	0.106	0.0368					
